Assay results reported in the supplement of paper PMC6531468.
Some of the results follow. These are enrichments in a pooled selection; single values are uncertain. Each score is taken over the longer molecules that contain the sequence shown.

Each sequence was assayed on IMP3 KH1-2 (assay: 6-mer SELEX enrichment z-score vs GST control; IMP3 is the RNA-binding protein IGF2BP3; higher = more enriched by binding). Conditions: construct: KH1-2 (164-376); SELEX round: R4.
Description: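 SELEX-seq with GST-tagged IMP3 KH1-2 (Pro164-Phe376) and an N40 RNA pool, round 4 (stringent 300/600 mM KCl washes). 6-mer z-score of sequence-tag enrichment normalised to the corresponding GST SELEX round; RNA k-mers written as DNA (T for U).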

IMP3 KH1-2, sequence (chain, as listed by the source): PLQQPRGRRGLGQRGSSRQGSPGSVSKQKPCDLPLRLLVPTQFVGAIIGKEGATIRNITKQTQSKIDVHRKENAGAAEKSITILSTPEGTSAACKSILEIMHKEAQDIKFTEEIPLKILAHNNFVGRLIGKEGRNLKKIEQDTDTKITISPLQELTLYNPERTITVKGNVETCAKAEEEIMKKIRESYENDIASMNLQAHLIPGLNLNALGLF

Row | Sequence | 6-mer SELEX enrichment z-score
1 | TATCAG | 0.542
2 | CGATCG | -1.17
3 | GTCGGA | 0.681
4 | CCGGCA | 0.712
5 | ACTTCT | 0.578
6 | GTTGAC | -0.85
7 | GAATCC | -0.777
8 | TCTGGA | -0.136
9 | GGAGTC | 0.589
10 | TGGTGA | 0.058
11 | GGGTGC | 0.181
12 | CGCTCT | 0.011
13 | ATATGG | 0.933
14 | ATTCAG | 0.793
15 | GAGATC | -0.215
16 | TACGCC | 0.097
17 | GCATTT | 0.089
18 | TTTGGA | -0.148
19 | GGATTT | 0.557
20 | CACCGC | 0.828

Row | Sequence | 6-mer SELEX enrichment z-score
21 | ACACAG | 1.85
22 | ATATGC | 0.878
23 | AAGGAA | 0.287
24 | AAAATA | 1.02
25 | TGCGAT | -0.137
26 | CAGGCA | 1.35
27 | CATCAG | 0.402
28 | GTCCCA | -0.824
29 | TCCTGC | -0.473
30 | TCCCGG | -0.561
31 | TGCTCC | 0.189
32 | TAGCAG | 0.542
33 | ACTGTT | 0.359
34 | TAGAGT | -0.018
35 | GTACTC | -1.03
36 | CGGTCA | 0.173
37 | CTTGCA | 0.032
38 | AGCATT | -0.012
39 | TCGATA | -0.268
40 | CGCTTA | 0.29
